In PMC12040169 (PLOS Biology, 2025):
Some of the results follow.

system: T1, C. trachomatis L2/434/Bu expressing GFP (CTL2-GFP); parameters: species or system HeLa; C. trachomatis total inclusion area by high-content imaging, normalised to DMSO; conditions: total inclusion area; 28.5 h, 10 µM; inhibitor
T1 construct: L2/434/Bu GFP intracellular growth in HeLa cells
In short: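 High-content imaging followed the bulk GFP/resorufin measurement: fixed, Hoechst-stained cells were scored for GFP inclusions and host nuclei per well. Total inclusion area and count served as growth proxies, nuclei number as the viability proxy. MIC calculation matched the bulk assay.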

| Compound | % of control remaining |
| --- | --- |
| Cc1ccccc1OCc1nnc(SCC(N)=O)n1-c1ccccc1 [CBK268808] | 102.685 |
| O=c1oc(-c2cccnc2)nn1Cc1ccccc1F [CBK283774] | 73.0907 |
| O=C(c1csnn1)N1CCc2ccccc21 [CBK200408] | 100.598 |
| CC(C)(C)OC(=O)N[C@@H](Cc1ccccc1)C(=O)NC[C@H]1CC[C@H](C(=O)O)CC1 [CBK286719] | 55.5045 |
| NS(=O)(=O)c1ccc(C(=O)NCCc2c[nH]c3ccc(Cl)cc23)cc1 [CBK159780] | 111.52 |
| COC(=O)c1ccccc1NC(=O)CCSc1ccc(C)cc1 [CBK265958] | 77.7812 |
| CC(C)Cc1ccc(-c2cc(Nc3ccc(O)cc3)ncn2)cc1 [CBK090754] | 116.646 |
| c1ccc2c3c([nH]c2c1)C12CCN(CC1)C(C1CCOC1)N2CC3 (stereo not shown) [CBK284433] | 88.5774 |
| c1c2c(cc3sc(N4CCOCC4)nc13)OCO2 [CBK287494] | 84.9307 |
| COc1ccc(C)cc1S(=O)(=O)Nc1cc(N2CCN(C(C)C)CC2)c2occc2c1 [CBK073625C] | 93.6572 |
| O=C(c1nc[nH]n1)N1CCN(c2nccc(CCC(F)(F)F)n2)CC1 [CBK307306] | 41.9697 |
| CCn1cc([C@H]2CN(C)C[C@@H]2N(C)C)c2ccccc21 [CBK285468] | 80.7999 |
| O=C(c1cccc(F)c1)N1C2CCC1CC(O)(c1cccnc1F)C2 (stereo not shown) [CBK284422] | 67.5434 |
| COc1ccc(CCNC(=O)C2CCN(S(=O)(=O)c3ccccc3)CC2)cc1 [CBK264985] | 92.3083 |
| COc1ccccc1Cn1nc2nnc(-c3ccccc3)c(-c3ccccc3)n2c1=O [CBK286185] | 97.3983 |
| CS(=O)(=O)Nc1nc2ccc(S(C)(=O)=O)cc2s1 [CBK092166] | 54.3931 |
| CNC(=O)C1CCN(Cc2ccc(-c3nnn(CC(=O)NCc4ccc(C)cc4)n3)cc2)CC1 [CBK153195T] | 82.2658 |
| CC(=O)N1C[C@@H](c2cccc(C)c2)[C@@H]2CN(CC3CC3)CC[C@@H]21 [CBK283372] | 107.421 |
| NC(=O)C1(Cc2ccc(-c3ccccc3)cc2)CCN(C(=O)COc2ccccc2)CC1 [CBK285773] | 97.3165 |
| Cc1nn(C)c(N2CCNCC2)c1NC(=O)CN(C)C(=O)c1ccccc1 [CBK050255T] | 59.83 |
| Cc1cccc2cc(CN(Cc3ccco3)C(=O)C3CCCCC3)c(O)nc12 [CBK269178] | 69.3643 |
| COC(=O)[C@@H](C)NC(=O)[C@@H]1CN(C(=O)c2cccc(F)c2)CCN1C(=O)C1CCCCC1 [CBK289621] | 102.358 |
| O=C(O)C1CCN(C(=O)NCc2ccc(F)cc2)CC1 [CBK156070] | 101.619 |
| N#Cc1nccnc1N1CCN(Cc2ccc3c(c2)OCO3)CC1 [CBK011284] | 82.6081 |
| O=C(NC1CCCCC1)NS(=O)(=O)c1ccc(CCNC(=O)c2cccs2)cc1 [CBK011888] | 33.581 |
| CN(C)S(=O)(=O)c1ccc(C(=O)C2=C(O)C(=O)N(CCN3CCCCC3)C2c2cccnc2)cc1 (stereo not shown) [CBK264700] | 102.711 |
| CC(C)NC(=O)N1Cc2nc[nH]c2C[C@H]1c1nc(-c2ccc3c(c2)OCO3)no1 [CBK289001] | 107.49 |

| Compound | % of control remaining |
| --- | --- |
| CCn1cc(C(=O)O)c(=O)c2cnc(N3CCN(C(=S)NC(=O)c4cccs4)CC3)nc21 [CBK265753] | 90.0728 |
| O=C(CN1Cc2ccccc2C1)N1CCCC1c1nc2ccccc2[nH]1 (stereo not shown) [CBK283710] | 100.282 |
| COc1cc(C)c(-c2nc(C)nc(C)c2C)c(C)c1 [CBK306711] | 56.202 |
| O=C(Cn1ncc2cccn2c1=O)c1ccc(F)cc1 [CBK283627] | 62.1286 |
| O=C(NCCN1CCOCC1)c1sc2cc(F)ccc2c1Cl [CBK018212] | 70.0416 |
| Cc1cc(C(=O)N2CCC(Cc3ccccc3-c3ccccc3)(C(=O)N(C)C)CC2)cs1 [CBK285676] | 97.8905 |
| CC1(C(=O)N2CCc3onc(-c4ccccc4F)c3C2)CCCO1 (stereo not shown) [CBK282660] | 105.898 |
| O=C(CN1C(=O)N2CCCN=C2c2ccccc21)NCc1ccccc1 [CBK284403] | 79.0156 |
| O=C(CN1C(=O)CCC1=O)Nc1nc2ccccc2s1 [CBK287345] | 72.3816 |
| Cc1ccc(NC(=O)C(=O)NCCCN2CCOCC2)cc1Cl [CBK264806] | 109.644 |
| O=C1N=C(NC2CCCCC2)SC1Cc1nc2ccccc2o1 (stereo not shown) [CBK067970] | 98.7496 |
| O=C(c1ccc2nc[nH]c2c1)N1Cc2ccccc2C1 [CBK200322] | 102.341 |
| CCOc1ccc(S(=O)(=O)Nc2ccc(C(=O)O)cc2)cc1 [CBK287171] | 100.105 |
| CCn1cc(CN(CCN(C)C)Cc2cccs2)c(C)n1 [CBK283037] | 85.0889 |
| CC(C)C(=O)N1CCCC1c1cc2n(n1)[C@@H](C(F)(F)F)C[C@@H](C)N2 (stereo partly shown) [CBK282966] | 81.2509 |
| Cc1cc2ncc3c(n2n1)CC1CCC3N1C(=O)c1cccs1 (stereo not shown) [CBK284415] | 104.277 |
| O=C(c1cccc(F)c1)N1CCN(Cc2ccccn2)CC1 [CBK263023] | 85.9351 |
| CC1=NN(c2nc(-c3cccc([N+](=O)[O-])c3)cs2)C(=O)C1/N=N/c1ccc(C)c(Br)c1 (stereo not shown) [CBK262430] | 117.472 |
| CC(C)(C)OC(=O)Nc1ccc2c(ccn2CCN2CCOCC2)c1 [CBK161767] | 64.6492 |
| O=C(O)CCSc1nc(-c2ccccc2)cc(=O)[nH]1 [CBK287076] | 109.604 |
| Cc1cnc(CNC(=O)N2CCN(CCN3CCOCC3)CC2)cn1 [CBK155673] | 82.4441 |
| O=C1CCC(=O)N1CCOc1nccnc1OC1CCN(CCOc2ccccc2)CC1 [CBK084354] | 99.946 |
| c1ccc(CCNc2cc(-c3ccsc3)ncn2)nc1 [CBK036963] | 150.177 |
| CC(C)[C@H]1CN(Cc2ccco2)CCN1C(=O)c1cscn1 [CBK285490] | 103.158 |
| CC(C)SCC(=O)Nc1ccc(Br)cc1 [CBK057618] | 46.623 |
| O=C(N[C@H]1CCN2C(=O)c3cc(-c4cccs4)ccc3NC(=O)[C@H]12)c1cnccn1 [CBK289337] | 81.6826 |
| O=C(Nc1nnc(-c2ccc3c(c2)OCCO3)o1)c1cccc(F)c1 [CBK287402] | 122.661 |

| Compound | % of control remaining |
| --- | --- |
| N#CC1CCC(CNC(=O)c2sc3ccccc3c2Cl)CC1 (stereo not shown) [CBK010864] | 102.217 |
| Cc1nonc1-c1csc(CC(C)n2cc(Cl)cn2)n1 (stereo not shown) [CBK304704] | 49.6083 |
| O=C(/C=C/c1ccc2c(c1)OCO2)NCCSc1ccccn1 [CBK264012] | 96.9337 |
| Cc1nc(C2CCN(C(=O)CC3CCCC3)CC2)ncc1C(=O)Nc1ccc(Cl)cc1 [CBK285847] | 91.6418 |
| Cc1cc2cccc(NC(=O)NCc3cncn3CC(C)C)c2o1 [CBK306715] | 58.5324 |
| C[C@H]1[C@@H]2[C@@H](O)C([C@H](C)C(=O)N3CCCC3)CC[C@@]2(C)CC[C@@H]1NC(=O)c1ccccc1 (stereo partly shown) [CBK289441] | 105.479 |
| CC(=O)Nc1nc2c3ccccc3n(C(C)=O)c2s1 [CBK011360] | 75.8636 |
| O=C(O)CCC(C(=O)O)N1C(=O)c2cc(Cl)c(Cl)cc2C1=O (stereo not shown) [CBK264156] | 104.992 |
| CCOc1ccc(NC(=O)C(C)Sc2nc3ccc(F)cc3[nH]2)cc1 (stereo not shown) [CBK266047] | 93.8381 |
| COc1ccc2c(c1)CC(=O)NC21CCN(Cc2c(F)cccc2F)CC1 [CBK039835] | 77.4287 |
| O=C(CSc1ccc(Cl)cc1)Nc1ccc(CN2CCOCC2)cc1 [CBK305855] | 37.4896 |
| O=C(NCCc1ccccc1)c1cc(-c2ccccc2Cl)[nH]n1 [CBK288113] | 106.862 |
| CCC(CC)Oc1ccc(C2(C)NC(=O)NC2=O)cc1 (stereo not shown) [CBK288409] | 71.6216 |
| CC1CCC(C(N)=O)CN1C(=O)c1csc(Br)c1 (stereo not shown) [CBK305812] | 59.6232 |
| COc1ccc2[nH]cc(CC(=O)N3CCCC4(CCN(C(=O)c5ccc(OC)c(OC)c5)C4)C3)c2c1 (stereo not shown) [CBK131666] | 101.82 |
| O=C1c2ccccc2S(=O)(=O)N1CC(O)Cn1ccc2ccccc21 (stereo not shown) [CBK267905] | 106.652 |
| C=CCNC(=O)N[C@H]1[C@H](O)[C@@H](N2CCCC2)[C@@H]2OC[C@H]1O2 [CBK288829] | 107.148 |
| CCCCC(=O)N(C)c1c(CC)nc2c(OCc3ccc(C#N)cc3)cccn12 [CBK147779] | 93.0533 |
| O=S(=O)(Oc1ccccc1)c1ccc2c(c1)Cc1cc(S(=O)(=O)Oc3ccccc3)ccc1-2 [CBK231928] | 83.4607 |
| COc1ccc(N2CCN(CC(O)c3c[nH]c4cc(OC)ccc34)CC2)cc1 (stereo not shown) [CBK286355] | 96.6052 |
| CCOC(=O)C1CCCN(Cc2ccc3c(c2)OCO3)C1 (stereo not shown) [CBK074569] | 85.8367 |
| O=C(O)c1cccc(C(=O)Nc2cccc(NC(=O)C3CCCO3)c2)c1 (stereo not shown) [CBK268566] | 104.773 |
| O=C(CCS(=O)(=O)c1ccccc1)Nc1c(F)cc(F)cc1OC1CCNCC1 [CBK050226T] | 60.6556 |
| Clc1ccccc1C1N(Cc2ccccc2)CCN1Cc1ccccc1 [CBK261217] | 102.846 |
| CC(=O)NCc1ccc(-c2ccc(C(=O)NC3(c4ccccc4)CCCC3)c(C)n2)cc1 [CBK285891] | 91.5057 |
